According to the supplement of paper PMC5919970:
Structures can show the parent of a compound that is named as a salt. Whole data set: some 2,000 compounds, median “fractional viability relative to vehicle” near 0.92, cut for the lowest 2% near 0.11. Some of the results follow.

Test system: TYKNU
Test: fractional viability relative to vehicle; TYKNU is a high-grade serous ovarian cancer line; higher = less growth inhibition
Conditions: 72 h, genotype: OPA1 knockout (sgOPA1 #2)
Summary of the method: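 TYKNU control cells or lentiCRISPRv2 knockout derivatives were seeded at 500 cells per well into drug-stamped 384-well plates holding a ~2100-compound library at 2 or 10 μM, in duplicate. Cells were grown at 37 °C in 5% CO2 in RPMI 1640 with 10% FBS, and drug treatment lasted 72 h. Viability was read by Cell Titer Glo luminescence. Duplicate treatment wells were averaged and normalised to duplicate control wells from the same plate position.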

| Structure (SMILES) | fractional viability (2uM) | fractional viability (10uM) |
| --- | --- | --- |
| O=C(NOCC(O)CO)c1cc(Br)c(F)c(F)c1Nc1ccc(I)cc1F (configuration not stated) | 0.756 | 0.448 |
| CN(C)CC(c1ccc(O)cc1)C1(O)CCCCC1 (configuration not stated) [Desvenlafaxine] | 1.14 | 1.01 |
| CN(C)CC(c1ccc(O)cc1)C1(O)CCCCC1 (configuration not stated) [Desvenlafaxine Succinate] | 1.12 | 0.972 |
| CN(C)C/C=C/C(=O)Nc1cc2c(Nc3ccc(F)c(Cl)c3)ncnc2cc1O[C@H]1CCOC1 [Afatinib (BIBW2992) Dimaleate] | 0.82 | 0.722 |
| CN(C)C/C=C/C(=O)Nc1cc2c(Nc3ccc(F)c(Cl)c3)ncnc2cc1O[C@H]1CCOC1 [Afatinib (BIBW2992)] | 0.907 | 0.236 |
| O=C(Nc1ccccc1)Nc1ccc(-c2ccc(C(=O)[C@@H]3CCC[C@H]3C(=O)O)cc2)cc1 | 0.882 | 0.847 |
| O=C1NC(=O)C(c2ccccc2)(c2ccccc2)N1 [Phenytoin] | 1.05 | 1.16 |
| CC(C)(O)c1ccccc1CC[C@@H](SCC1(CC(=O)O)CC1)c1cccc(/C=C/c2ccc3ccc(Cl)cc3n2)c1 [Montelukast Sodium] | 0.964 | 0.947 |
| Cc1cc(OCc2nnc(SC3CCCC3)n2-c2cccnc2)ccc1-c1ccc(S(C)(=O)=O)cc1 | 0.693 | 0.201 |
| CNC(=O)c1ccc(C)c(-n2c(C)cc(OCc3ccc(F)cc3F)c(Br)c2=O)c1 | 1.09 | 0.96 |
| CCCCCCCCCCCC[N+](C)(C)CCOc1ccccc1 [Domiphen Bromide] | 0.653 | 0.194 |
| Cc1ccc(-n2nc(C(C)(C)C)cc2NC(=O)Nc2ccc(OCCN3CCOCC3)c3ccccc23)cc1 [BIRB 796 (Doramapimod)] | 1.26 | 1.07 |
| c1ccc(CN(CC2=NCCN2)c2ccccc2)cc1 [Antazoline HCl] | 0.961 | 0.764 |
| CN(C)Cc1ccc(S(=O)(=O)n2ccc(/C=C/C(=O)NO)c2)cc1 [Resminostat] | 0.836 | 0.308 |
| Nc1ncnc2n[nH]c(Nc3ccc(F)cc3)c12 | 0.989 | 0.896 |
| CC[C@H](C)C[C@H](C)CCCCCCCCC(=O)N[C@H]1C[C@@H](O)[C@@H](NCCN)NC(=O)[C@@H]2[C@@H](O)CCN2C(=O)[C@H]([C@H](O)CCN)NC(=O)[C@H]([C@H](O)[C@@H](O)c2ccc(O)cc2)NC(=O)[C@@H]2C[C@@H](O)CN2C(=O)[C@H]([C@@H](C)O)NC1=O [Caspofungin Acetate] | 1.01 | 1.02 |
| CCn1cc(NC(=S)Nc2cc(Cl)ccc2OC)c(C(N)=O)n1 | 0.941 | 0.905 |
| CN(C)CC/C=C1/c2ccccc2COc2ccc(CC(=O)O)cc21 [Olopatadine HCl] | 1 | 0.882 |
| O=C(/C=C/c1ccc(O)c(O)c1)O[C@@H]1C[C@](O)(C(=O)O)C[C@@H](O)[C@H]1O [Chlorogenic Acid] | 0.982 | 0.751 |
| C[C@@H]1COC(Nc2ccc3ncnc(Nc4ccc(OCc5nccs5)c(Cl)c4)c3c2)=N1 [Varlitinib] | 1.53 | 0.649 |
| Oc1cccc(-c2nc(N3CCOCC3)c3oc4ncccc4c3n2)c1 | 0.47 | 0.451 |

| Structure (SMILES) | fractional viability (2uM) | fractional viability (10uM) |
| --- | --- | --- |
| Cn1cc(-c2ccc3c(c2)CCN3C(=O)Cc2cccc(C(F)(F)F)c2)c2c(N)ncnc21 | 1.17 | 0.836 |
| CC(=O)OCC(=O)[C@H]1CC[C@H]2[C@@H]3CCC4=CC(=O)CC[C@]4(C)[C@H]3CC[C@]12C [Deoxycorticosterone acetate] | 1.03 | 0.975 |
| C#C[C@]1(O)CC[C@H]2[C@@H]3CCC4=CC(=O)CC[C@@H]4[C@H]3CC[C@@]21CC [Levonorgestrel] | 1.19 | 1.09 |
| N#C/C(=C\c1ccc(O)c(O)c1)C(=O)NCc1ccccc1 [AG-490 (Tyrphostin B42)] | 1.03 | 1.08 |
| CCCOc1ccc(C(=O)OCCN(CC)CC)cc1N [Proparacaine HCl] | 1.17 | 1.04 |
| CCN(CC)CCCCNc1ncc2cc(-c3cc(OC)cc(OC)c3)c(NC(=O)NC(C)(C)C)nc2n1 | 1.51 | 0.756 |
| CC[C@@H](CO)NCCN[C@@H](CC)CO [Ethambutol HCl] | 0.969 | 0.932 |
| CC(C)C[C@H](NC(=O)CNC(=O)c1cc(Cl)ccc1Cl)B1OC(=O)C(CC(=O)O)(CC(=O)O)O1 | 0.335 | 0.299 |
| O=C1CCC(N2C(=O)c3ccccc3C2=O)C(=O)N1 (configuration not stated) [Thalidomide] | 1.07 | 1.03 |
| c1cn2cc(-c3ccc4cn[nH]c4c3)nc(Nc3ccc(N4CCOCC4)cc3)c2n1 | 1.06 | 0.15 |
| C[C@H](CCC(=O)NCCS(=O)(=O)O)[C@H]1CC[C@H]2[C@@H]3[C@@H](O)C[C@@H]4C[C@H](O)CC[C@]4(C)[C@H]3CC[C@]12C [Sodium Tauroursodeoxycholate (TUDC)] | 0.832 | 0.834 |
| C=CCn1c(=O)c2cnc(Nc3ccc(N4CCN(C)CC4)cc3)nc2n1-c1cccc(C(C)(C)O)n1 | 0.482 | 0.582 |
| Clc1ccc(C(Cn2ccnc2)OCc2csc3c(Cl)cccc23)c(Cl)c1 (configuration not stated) [Sertaconazole nitrate] | 0.94 | 0.76 |
| O=C(Nc1cccc2cccnc12)c1ccc(N2C(=O)[C@@H]3[C@H](C2=O)[C@@H]2C=C[C@H]3C2)cc1 [IWR-1-endo] | 0.851 | 0.872 |
| CC1(C)S[C@@H]2[C@H](NC(=O)Cc3ccccc3)C(=O)N2[C@H]1C(=O)O [Penicillin G Sodium] | 0.867 | 0.976 |
| CCCCc1nc(Cl)c(CO)n1Cc1ccc(-c2ccccc2-c2nnn[nH]2)cc1 [Losartan Potassium (DuP 753)] | 1.09 | 1.1 |
| CCOc1cc(N)c(Cl)cc1C(=O)NCC1CN(Cc2ccc(F)cc2)CCO1 (configuration not stated) [Mosapride Citrate] | 1.15 | 0.973 |
| COC(=O)[C@H](CCSC)NC(=O)c1ccc(NC[C@@H](N)CS)cc1-c1ccccc1 | 0.769 | 0.691 |
| Cc1cccc(Nc2ccccc2C(=O)O)c1C [Mefenamic Acid] | 1.14 | 1.01 |
| CCC(C)n1ncn(-c2ccc(N3CCN(c4ccc(OCC5COC(Cn6cncn6)(c6ccc(Cl)cc6Cl)O5)cc4)CC3)cc2)c1=O (configuration not stated) [Itraconazole] | 0.902 | 0.947 |
